This note sets out measurements from PMC12136788.

To fix the notation:
B1: 69484204_69485806_73_CDS_ENSMUSG00000059796_ENSMUST00000163666|mouse|control|control (ssRNA)
RNA: GGGAGUUCUACAGUCCGACGAUCGAGAUUCAUGUCAUCAAAGCUAUCCACAAUCUCGUUCCAGUUACUCUCGAUGACGCCUUCCGGCUCCAUCCCGUCGGGGCCAUUGUCUCUGGAUCGAGAAUCCUGACUCGCAGACAUGAUCAACAGAGGAUUGAGCAUCA
B2: 91746361_91746481_1453_CDS_ENSG00000001630_ENST00000003100|human|control|control (ssRNA)
RNA: GGGAGUUCUACAGUCCGACGAUCUCCAAAUGGCACAUAGGCAAACUUUUCCCCUGAUGCUGGGUUAUCCUGUAAGUAGCGAUCAGGAUUAAAGUCCAGGCGUUCUACCCAUGAGUCUUUAAGUCUUUGAUUGACAGUGGGAGACAACAGAGGAUUGAGCAUCA
B3: chr3:150289932:150289933:+_ENSG00000144895_ENST00000460851|hu_hu|hu_hu_hu_mus_False|78_98 (ssRNA)
RNA: GGGAGUUCUACAGUCCGACGAUCCUUGUAGUUUUUAACAUCCCACACUUCCAUUUGUCCCCUCAGAUUUCCAAAUCCAGCCAGCACUAAUAUAUGUCCAUGAGGGCUAUAGAAGGCUGCGUUGCGAGGACCAGUCCCAAAGUCCAACAGAGGAUUGAGCAUCA
B4: chr3:176740097:176740098:-_ENSG00000177565_ENST00000430069|hu_mus|hu_hu_hu_mus_True|8_8 (ssRNA)
RNA: GGGAGUUCUACAGUCCGACGAUCUGUUUUGUAUACCACAAAAGGAGGCACUUUCAGUAUCUGCAAAAGGUGUUUAGUCCUAAAACAUACUCACCUAGAGGAUAACUCAGGAAAACAAUCUGUUACACUAGUAUCUAUACUCCACAACAGAGGAUUGAGCAUCA
B5: 153934122_153934242_4685_ncRNA_ENSMUSG00000028360_ENSMUST00000144677|mouse|control|control (ssRNA)
RNA: GGGAGUUCUACAGUCCGACGAUCUCUAUUGGCACAAUAAAAAACUGACAGGUAAACAGGUUGUUUCGUAUAAAAGUUAGUGGAACUGACAAUCCAUAACAGGAUAGAAGAGCCACAGGUAAUGGGGCUUUCCAGCCCAGCACACAACAGAGGAUUGAGCAUCA
B6: chrX:98862621:98862622:+_ENSMUSG00000034160_ENSMUST00000044475|mus_hu|mus_mus_mus_hu_False|58_88 (ssRNA)
RNA: GGGAGUUCUACAGUCCGACGAUCCUGCAUCUCCUUUAGAGUGUUUCCCAUAUUGGAGUAGGCAUCAGCAAAGGUAGGACUAAUUCGAAUAGCCUCCUUAUAAUGCAUCAGAGCUUCCUGCAGUUUUCCCUGCUGCUGCAGUACCAACAGAGGAUUGAGCAUCA
B7: chr4:117558906:117558907:-_ENSMUSG00000033379_ENSMUST00000036380|mus_mus|motif|central (ssRNA)
RNA: GGGAGUUCUACAGUCCGACGAUCGGAUGAGCCGGUUAUAUAGAUUCCCCAGGCUGCUCCAACCACAGACAGAGAAAUUGCGGGGCCAAUGCCCAGAUUCGACCACAUGAAGGGGGAAGUUUCCGUCAGGAACCAUGCCACAUCCAACAGAGGAUUGAGCAUCA
B8: 98667876_98670545_2651_CDS_ENSMUSG00000028556_ENSMUST00000030286|mouse|control|control (ssRNA)
RNA: GGGAGUUCUACAGUCCGACGAUCUCCCAAACCCCCGGGACCUGGUGACGGUGAAUUAGGGUAAGUAUUUGGCAGGCGGAACACAUAAUAGAUAUACGAUGCGAGAAGGUUGUUUCUGCCAUGCUGGUCAUGAUUUCCUUCUAACAACAGAGGAUUGAGCAUCA
B9: 111933410_111933530_464_3pUTR_ENSMUSG00000021270_ENSMUST00000094361|mouse|control|control (ssRNA)
RNA: GGGAGUUCUACAGUCCGACGAUCUCUGCACCAGCCUGCAAAGCCUCCAUGAAGGCUUUGGUGCCCGACUUGGCAAUGGUGCCAAGGUUAUUGAUCAAGUCGGCCUUGGUCAUUCCAAUCCCGGUAUCCACAAUGGUCAGGGUUCAACAGAGGAUUGAGCAUCA
B10: 33914443_33925304_586_3pUTR_ENSG00000006125_ENST00000262325|human|control|control (ssRNA)
RNA: GGGAGUUCUACAGUCCGACGAUCCUUUCUCUUUUCUUUCUUUUCAUUGUUGAGUUCAGCUUUUAGUUCAAAUAUUUCUCCUUUUUUAUUGGUUGUGAAAUACUUGGAGUCAGUCAUGACUUUGGAUCUUUAAUGUGCACCGGACAACAGAGGAUUGAGCAUCA
B11: chr6:143133109:143133110:+_ENSMUSG00000030275_ENSMUST00000032413|mus_mus|motif|central (ssRNA)
RNA: GGGAGUUCUACAGUCCGACGAUCUUUGGGGAUCCAGCCAUUGUGCGCAUGAAUAGCAUGGAUUUUAGCAAGCUGACGAGCGGUUAGCCUGAAAAUGGCUGGGUUGCAGACAUGCUGCGGGUCCAAAGCUUCGCCCUGGAUAAACAACAGAGGAUUGAGCAUCA
B12: chr6:40197388:40197389:+_ENSMUSG00000057716_ENSMUST00000061740|mus_mus|mus_mus_mus_hu_False|88_88 (ssRNA)
RNA: GGGAGUUCUACAGUCCGACGAUCGAGACACUGGGGUGGAUUUAUUCUCAGUUUGGGUGGGUGCUAGCCACUAAGACUGUUAUUUUGGGAUUCAUGGCCUUGAAUAUCAAGAGGGAAAGGAAGAGGAUGGAAAGAGUCAAGAGUCAACAGAGGAUUGAGCAUCA
B13: 113187099_113187219_1241_3pUTR_ENSG00000163611_ENST00000295872|human|control|control (ssRNA)
RNA: GGGAGUUCUACAGUCCGACGAUCUUCUUCCAUUUCAUGUUCCACUUCAUGUAUCAUGUGUUUGAGGACAUCCAGGUUGGAAUUAGUCCUAUUUGGUAAGUCUGCAGAGGUUGUGCUACCUGAUGAUAUGUUUUUCUUCGGCUUCAACAGAGGAUUGAGCAUCA
B14: chr11:30747457:30747458:+_ENSMUSG00000040850_ENSMUST00000041231|mus_mus|FALSE|FALSE (ssRNA)
RNA: GGGAGUUCUACAGUCCGACGAUCACCCUUAAAGAGGCAGAAACGCCGGGGACUAAACUUAUCUCUUCCUUUUCUGUCUUCUAAAGAUAGAAAUGUGAUUAACUGCUCAACAAACUUAGGAUCAGAAAAACGAUCAUAUAUAAUCAACAGAGGAUUGAGCAUCA

This is one part of the list.

The target in the assay is T1, UNK ZnF1-3 (human, UniProt Q9C0B0 31-174).
T1 sequence: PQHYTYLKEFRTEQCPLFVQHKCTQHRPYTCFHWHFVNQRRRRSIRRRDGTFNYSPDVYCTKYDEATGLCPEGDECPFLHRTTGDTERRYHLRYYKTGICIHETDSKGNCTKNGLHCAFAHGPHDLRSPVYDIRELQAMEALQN
As to the kind of experiment: nsRBNS (natural sequence RNA bind-n-seq); RBNS binding buffer (assumed for nsRBNS): 25 mM Tris pH 7.5, 150 mM KCl, 3 mM MgCl2, 0.01% Triton X-100, 500 ug/ml BSA, 20 U/ml SUPERase-In, 4 C; UNK is unkempt and MSI1 is Musashi-1; names of the RNAs are library labels; protein concentration not given here; high values mean tight binding.
With B1, the binding signal is 0.64 enrichment R. The same measure for B2: 0.861 enrichment R; for B3: 1.42 enrichment R. The figure for B4 is 0.797 enrichment R; for B5 it is 0.952 enrichment R; for B6 it is 0.89 enrichment R.

As for B7, the binding signal is 2.32 enrichment R. Regarding B8, the binding signal stood at 1.19 enrichment R. The figure for B9 is 0.634 enrichment R; for B10 it is 0.321 enrichment R; for B11 it is 0.834 enrichment R. The molecule B12 displayed a binding signal of 1.51 enrichment R. The figure for B13 is 0.422 enrichment R. B14 displayed a binding signal of 0.442 enrichment R.
